Source: the supplement of paper PMC10338343
± gives the standard deviation. The list shows a part of the results, in another mix than the full data.

System: MIWI (PIWIL1) piRISC loaded with piRNA #1 (30 nt)
Assay: pre-steady-state target cleavage rate (min^-1); MIWI and MILI are mouse PIWI proteins and EfPiwi is from a freshwater sponge; tags in brackets are library labels; higher = faster piRNA-guided slicing of the target
Conditions: guide: piRNA #1 5'p-UGAGGUAGUAGGUUGUAUAGUAUCCAGAGG; auxiliary factor: 500 nM mouse GTSF1
In short: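 A transcribed, DNA-blocked target RNA library (0.1 nM) and 1 nM active affinity-purified piRISC bearing one synthetic guide were incubated in HEPES–potassium acetate buffer at 33 °C for 0–8 or 0–960 min, either with or without 500 nM GTSF1 partner protein. Uncleaved targets were sequenced, normalised to depth and to weakly complementary targets, and pooled over three trials, with k3 capped at 0.0001 min^-1. The pre-steady-state cleavage rate was derived with a burst-and-steady-state fit.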

Sequence	pre-steady-state target cleavage rate
GGAGACCUAACUAUACAACCUAGCUACCUCA	0.0156 ± 0.0054
GGAGAGGUUACUAUAGAACCUACUACCUCA	1.04 ± 0.074
GGAGACCUUAGUAUACUACCUACUACCUCA	0.0222 ± 0.0051
GGAGACCUUUCUAUACAACCUUCUACCUCA	0.151 ± 0.017
GGAGAGGAUACUGUACAACCUACUACCUCA	0.682 ± 0.041
GGAGUGGAUACUAUACAACCUACAAGCUCA	0.0042 ± 0.002
GGACUGGAUACUAUACAACCUACUACCUCCA	2.19 ± 0.17
GGAGUGGAUACUAUACUACCUACUACGUCA	0.323 ± 0.027
GGAGACGAUACUAUAAAACCUACUACCUCA	1.58 ± 0.092
GGAGACCUAACUAUACUACCUACUAGCUCA	0.0104 ± 0.004
GGAGACCUUAGUAUAGAACCUACUACCUCA	0.394 ± 0.063
GGAGUGGAUACUAUACUACCUACUACCACA	0.757 ± 0.08
GGAGACCAUACAAUACAACGUACUACCUCA	0.159 ± 0.029
GGAGAGGAUACUAGUACAACCUACUACCUCA	0.299 ± 0.042
GGAGACCUAUGAUAACAACCUACUAGCACA	< 0.0001
GGAGACCAUACUAUACAUGGUACUACCUCA	0.00737 ± 0.0025
GGAGACCUAUGUAUACAACCUACUACCAUCA	0.0683 ± 0.0095
GCUCAGGAUACUAUACAACCAACUACCUCA	0.139 ± 0.013
GGAGACCUAUCUAUUCAAGCUACUACCUCA	0.16 ± 0.021
GGACUGGAUUACUAUACAACCUACUACCUCA	1.55 ± 0.13

Sequence	pre-steady-state target cleavage rate
GGAGUGGAUACUAUACAACCAACUACCUCA	0.148 ± 0.012
GGAGUGGAUACUAUACAACCAUGUACCUCA	0.00875 ± 0.0027
GGUCUGGAUACUAUACAAGCUACAACCUCA	0.536 ± 0.045
GCUCUGGAUACUUUACAACCUUCUACCUCA	0.604 ± 0.029
GCUCUGGAUACUAUACCACCUACUACCUCA	1.62 ± 0.093
GCUCUGGAUAGUAAACAACCUACUACCUCA	0.764 ± 0.038
CCGCUGGAUACUAUACAACCUACUACCUCA	1.88 ± 0.094
CCUCUGGAUACUAUACAUCCUACUACCACA	1.56 ± 0.12
GCUCUGGAUACAAUACAACCUACUACCACA	1.43 ± 0.088
GGAGACGUUACAAUACAACCUACUACCUCA	0.765 ± 0.097
GGACUGGAUACUAUACAAGCUUCUACCUCA	0.152 ± 0.014
GGAGACCUAUGUAUACAUCCUACAACCUCA	0.00223 ± 0.0016
CCUCUGGUUACUAUACAACCUACUAGCUCA	0.705 ± 0.055
GCUCUGGAAACUAUACAACCUACUAGCUCA	0.837 ± 0.13
GGAGAGGAUACAUAUACAACCUACUACCUCA	1.05 ± 0.059
GGAGACCUAACAAUAGAACCUACUACCUCA	0.00656 ± 0.0032
GGAGAGGAGUACUAUACAACCUACUACCUCA	0.209 ± 0.032
GGAGAGCAUACUAAACAACCUACUACCUCA	1.39 ± 0.1
GCUCUGGAUACUAUAACAACCUACUACCUCA	1.92 ± 0.14
GGAGACCUUACUAUACAACCUACUACCGUCA	0.84 ± 0.062
